The whole screen tested about 52,000 compounds, of which about 4,300 (8.3%) were called active. Cut-off read from the data, not from the text of the source: active = survival mostly below about 52% (no sharp cut-off); inactive = mostly above about 56%. The list shows a part of the results.
These compounds were tested on DeltatarO mutant (assay: S. aureus survival, RN4220 and DeltatarO strains – OD600, teichoic acid synthesis inhibitors, primary screen (AID 463173)). Conditions: S. aureus RN4220 wild type/DeltatarO growth, OD600, 18 h, active compounds read low, screened at 18.75 µg/mL (by protocol).

SMILES	survival
Cc1ccccc1-c1nnc(C2CCN(S(=O)(=O)c3ccc(Cl)cc3)CC2)o1	inactive: 89%
COc1ccc(CNC(=O)c2cc3c(=O)n(C)c4ccccc4c3n2C)cc1	inactive: 89%
Cn1cnc(S(=O)(=O)N2CCC(C(=O)NCc3ccc(Cl)cc3)CC2)c1	inactive: 101%
O=C(Cc1ccccc1)N(Cc1cccnc1)c1nc2ccc(F)cc2s1	inactive: 86%
N=c1nc(N)nc2n1NC(c1ccc(F)cc1)=CS2	inactive: 87%
COC(=O)C(C)Sc1nnc2cc(C)c3cc(C)cc(C)c3n12 (centres undefined)	inactive: 100%
COc1cc(-c2cc(OC)c3c(C)oc(C)c3c(=O)c2)ccc1OC(=O)c1ccccc1C	inactive: 86%
O=C(CN1C(=O)C(c2ccc(F)cc2)=NC12CCCCCC2)Nc1ccc(F)c(Cl)c1	active: 40%
CC(=O)Nc1ccc(S(=O)(=O)Nc2cc(C)nc(C)n2)cc1	inactive: 98%
COc1ccccc1NC(=O)Cn1c(=O)n(Cc2ccco2)c(=O)c2oc3ccccc3c21	inactive: 67%
Cc1ccc2c(=O)cc(C(=O)Nc3c(C)n(C)n(-c4ccccc4)c3=O)oc2c1C	inactive: 73%
CCC(=O)NC1CC(=O)N(c2ccc3c(c2)OCCO3)C1 (centres undefined)	inactive: 82%
CN(C(=O)c1nc(-c2cccc(F)c2)n2c1CCCCC2)c1ccccc1F	inactive: 98%
Cc1cc(C)c2c(-n3cccc3)c(C(=O)NCCc3ccc(Cl)cc3)sc2n1	inactive: 104%
CCc1nn(CC(=O)NCCCOC)c(=O)c2cc3occc3n12	inactive: 123%
CCCN(CCC)CCCNC(=O)Cn1cnc2onc(-c3ccc(F)cc3)c2c1=O	inactive: 92%
O=C(Cn1cnc2c(nc3n2CCCCC3)c1=O)Nc1ccc(F)cc1	inactive: 86%
CCOc1ccc(C(=O)N2CCN(c3ccccc3)CC2)cc1	inactive: 78%
Cc1ccc(-c2nnc(Nc3ccc(Br)cc3)c3ccccc23)cc1S(=O)(=O)N1CCCCC1	inactive: 72%
COc1cccc(CNC(=O)CC(c2ccc(F)cc2)N2Cc3ccccc3C2=O)c1 (centres undefined)	inactive: 83%
CCc1ccc(NC(=O)CSc2ccc3nnc(CCNS(=O)(=O)c4ccc(OC)cc4)n3n2)cc1	inactive: 81%
Cc1cc(OCCCSc2nc(-c3ccc(C(C)(C)C)cc3)nc3cc(=O)[nH]n23)ccc1Cl	inactive: 89%
CCc1ccc(NC(=O)C2CCN(c3cc(C)nc4c(-c5ccc(Cl)cc5)c(C)nn34)CC2)cc1	inactive: 92%

SMILES	survival
CC1CCCC(C)N1C(=O)c1ccccc1N (centres undefined)	inactive: 83%
Cc1nc2ccc(S(=O)(=O)CCC(=O)Nc3ccc(F)cc3C)cc2s1	inactive: 44%
COc1cc(Cl)c(NC(=O)C2CCN(S(=O)(=O)c3c(C)noc3/C=C/c3ccccc3F)CC2)c(OC)c1	inactive: 98%
CC(C)c1ccc(NC(=O)CCCc2nc(-c3ccc(Cl)cc3)no2)cc1	inactive: 90%
CCCOc1ccc(NC(=O)CC2C(=O)N(c3ccccc3)C(=O)N2CCC(C)C)cc1 (centres undefined)	inactive: 87%
COc1cc(C2c3c(-c4ccccc4O)n[nH]c3C(=O)N2Cc2ccncc2)ccc1O (centres undefined)	inactive: 90%
CCc1ccccc1NC(=O)C1CCCN(S(=O)(=O)c2cccc3nsnc23)C1 (centres undefined)	inactive: 84%
COc1ccc(CCNC(=O)CCc2c(C)nc3c(c(C)nn3-c3ccc(C)cc3)c2C)c(OC)c1	inactive: 107%
COc1ccc(Nc2cc(C)nc(-n3nc(C)cc3C)n2)cc1Cl	inactive: 81%
CC(C)N(C(=O)CSc1nc2ccccc2n1CC(=O)N1C(C)CCCC1C)C(C)C (centres undefined)	inactive: 96%
Cc1ccc(C2=Nc3ccccc3NC(c3ccncc3)=N2)cc1	inactive: 77%
CCOc1ccc(-c2nc3c(C#N)c[nH]n3c2NC2CCCC2)cc1	inactive: 61%
CNS(=O)(=O)c1cn(CC(=O)Nc2ccc(C)cc2C)cc1S(=O)(=O)NC	inactive: 117%
CCCC1=C(C(=O)OC)C(c2ccccc2)n2c(nc3ccccc32)N1 (centres undefined)	inactive: 85%
COc1ccc(NS(=O)(=O)c2ccc(NC(=O)N3CCCC3)cc2)cc1	inactive: 117%
CCOC(=O)c1cc(-c2ccc(C)cc2)nn1Cc1ccccc1	active: -12%
O=C1OC(c2ccccc2)=N/C1=C\C=C\c1ccco1	inactive: 98%
Cc1ccc(-c2cn3c(n2)sc2cc(C(=O)NCCCc4ccccc4)ccc23)cc1	inactive: 72%
CC(C)N(C(=O)CSc1nc2ccccc2c(=O)[nH]1)C(C)C	inactive: 97%
COc1ccc(Cl)cc1NC(=O)CN(c1cc(C)cc(C)c1)S(=O)(=O)c1c(C)n[nH]c1C	active: 9%
CCc1ccc(NC(=O)c2cc3c(=O)n(Cc4cccs4)ccc3nc2C)cc1	inactive: 117%
O=C(Nc1cc(F)ccc1F)C1COc2ccccc2C1 (centres undefined)	inactive: 69%
COc1cc(-c2noc(C3CC(=O)N(c4ccc5c(c4)OCCO5)C3)n2)cc(OC)c1OC (centres undefined)	inactive: 64%

SMILES	survival
Cc1ccc(CNc2ccc(-c3nc(-c4ccco4)no3)cc2[N+](=O)[O-])cc1	inactive: 53%
COc1ccc(C(=O)Nc2ccc(-n3nncc3-c3ccc(OC)c(OC)c3)cc2)cc1	inactive: 80%
Cc1ccc(S(=O)(=O)c2nc(-c3ccccc3)oc2N2CCN(c3ccccc3)CC2)cc1	inactive: 85%
Cc1ccc(-c2cc(C(=O)O)n(Cc3ccccc3)n2)cc1	inactive: 67%
O=C(CN(C(=O)c1csnn1)c1cccc(F)c1)NC1CCCC1	inactive: 98%
Cc1nc2c(C(=O)Nc3ccc(N4CCC(O)CC4)cc3)snc2c(=O)[nH]1	inactive: 106%
COc1ccc(-c2cc(C(=O)Nc3c(Cl)cccc3Cl)no2)cc1OC	inactive: 58%
Cc1ccc(-n2c3c(c(=O)[nH]c2=O)C(NC(=O)c2ccccc2F)(C(F)(F)F)C(=O)N3)cc1C (centres undefined)	inactive: 92%
CCN(CCCNC(=O)c1cc2c(=O)n(CC)c3ccccc3c2s1)c1cccc(C)c1	active: 42%
Cc1ccccc1-c1nc(CS(=O)(=O)CC(=O)NC(C)c2ccccc2)c(C)o1 (centres undefined)	inactive: 138%
CCc1ccc(N2CCn3c2nc2c3c(=O)n(Cc3ccc(F)cc3)c(=O)n2C)cc1	inactive: 86%
COc1ccc2c(c1)c(=O)c(S(=O)(=O)c1ccc(C)c(C)c1)cn2CC(=O)Nc1ccccc1	inactive: 93%
COc1ccc(NC(=O)NC2COc3ccccc3C2)c(OC)c1 (centres undefined)	inactive: 98%
CC(C)c1ccc(NC(=O)C2CCN(S(=O)(=O)c3cccc4nsnc34)CC2)cc1	inactive: 72%
O=C(Cn1ccn(-c2cccc(Cl)c2)c(=O)c1=O)NCCc1ccccc1	inactive: 57%
Cc1c(C(=O)Nc2nc(-c3ccc(F)cc3)ns2)oc2ccc(Br)cc12	inactive: 86%
O=C1OC(Nc2ccccc2C(F)(F)F)c2ccccc21 (centres undefined)	inactive: 45%
O=c1cc(-c2ccccc2)nc(SCc2nc(-c3ccc(C(F)(F)F)cc3)no2)[nH]1	inactive: 188%
NC(=O)CSc1nnc(-c2ccccc2)o1	inactive: 103%
COc1ccc(CNC(=O)CCc2cn(Cc3cc(C)ccc3C)c3ccccc23)cc1OC	inactive: 71%
CC(C)(C)c1ccc(-c2nc3cc(NC(=O)c4cc5ccccc5o4)ccc3o2)cc1	inactive: 71%
CCCOc1ccc(-c2nc3ccccc3c(=O)o2)cc1	inactive: 64%
COc1ccc(CCNC(=O)c2ccc3c(c2)N(Cc2ccc(C)cc2)CCS3)cc1OC	inactive: 93%

SMILES	survival
COCCNC(=S)N1CCN(c2ccc(S(=O)(=O)N3CCCC3)cc2)CC1	inactive: 65%
CC(C)N(C(=O)CSc1nnnn1C1CCCC1)C(C)C	inactive: 96%
CC1=C(C(N)=O)C(c2ccc(C(C)C)cc2)n2nc(SCc3ccccc3)nc2N1 (centres undefined)	inactive: 75%
CCOc1ccc(S(=O)(=O)N(CC(=O)Nc2cccnc2)c2ccccc2)cc1	inactive: 114%
Cc1cc(C)n2nc(SCC(=O)Nc3cc(Cl)ccc3C)nc2n1	inactive: 63%
COc1ccc2c(c1)cc(CNc1ccc(OC)c(OC)c1)c(=O)n2CC(=O)Nc1ccc(F)cc1	inactive: 74%
CN(CC(=O)Nc1cccc(Cl)c1)S(=O)(=O)c1ccc2[nH]c3c(c2c1)CCCC3	inactive: 88%
O=S(=O)(NCC(c1ccco1)S(=O)(=O)c1ccccc1)c1ccccc1 (centres undefined)	inactive: 102%
Cc1c(C(=O)Nc2ccc(F)c(F)c2)oc2ccc(S(=O)(=O)N3CCCCC3)cc12	active: 52%
Cc1ccccc1Nc1ccc2noc3c2c1C(=O)c1ccccc1-3	inactive: 79%
COc1ccccc1CNC(=O)CCc1c(C)c2ccc(OC)c(C)c2oc1=O	inactive: 74%
COc1ccccc1CNC(=O)CCCCn1c(=O)c2ccccc2n(Cc2c(C)cc(C)cc2C)c1=O	inactive: 87%
COc1ccc(CNC(=O)Cn2c(=O)oc3cc(S(=O)(=O)N4CCCCCC4)ccc32)cc1	inactive: 69%
COc1ccc(N2CCN(C(=O)CCc3c(C)nc4c(-c5ccccc5)c(C)nn4c3C)CC2)cc1	inactive: 91%
Cc1nc2c(C(=O)NCc3ccccc3Cl)c[nH]n2c(=O)c1Cc1cccc(Cl)c1	active: -16%
CC(NC(=O)CSc1n[nH]c(-c2ccccc2Cl)n1)c1nc2ccccc2n1C (centres undefined)	inactive: 117%
Cc1c(Cl)cccc1NC(=O)CC(c1cccs1)N1Cc2ccccc2C1=O (centres undefined)	active: 32%
CCOc1ccc(NC(=O)CN2CCN(Cc3ccccc3)S2(=O)=O)cc1	inactive: 91%
COc1c(C)cc(S(=O)(=O)Nc2cccc(-c3ccc(N4CCOCC4)nn3)c2)c(C)c1C	inactive: 91%
CCOC(=O)c1cccc(NC(=O)CC(c2cc(OC)c(OC)c(OC)c2)N2Cc3ccccc3C2=O)c1 (centres undefined)	inactive: 87%

Reference: PubChem BioAssay AID463173 (ICCB-Longwood Screening Facility, Harvard Medical School, 2010)
